Results are given in words; binding and its absence hold for the method and conditions named. For some assays here: In cells and extracts the contact can be indirect. Some results given as binding are weak or reduced against the parent protein; the word gives no strength. For some assays here: Tags and fused reporters may be left off the sequences shown.

Chains of the proteins cited; added tags and fusions are not shown. Lines headed by an entry give the natural chain unless they say otherwise; changes in a name come on top. A line that says so, or that is headed by a name, gives the form on record, which may keep a tag or linker.
UniProt P31946: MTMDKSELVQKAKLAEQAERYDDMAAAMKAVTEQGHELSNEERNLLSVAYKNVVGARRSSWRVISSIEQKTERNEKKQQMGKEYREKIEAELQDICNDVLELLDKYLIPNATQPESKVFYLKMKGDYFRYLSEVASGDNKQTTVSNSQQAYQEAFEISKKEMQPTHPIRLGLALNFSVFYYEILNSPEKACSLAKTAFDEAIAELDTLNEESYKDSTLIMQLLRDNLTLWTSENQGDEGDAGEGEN
HA-14-3-3β(C96, 191S) (P31946, form named): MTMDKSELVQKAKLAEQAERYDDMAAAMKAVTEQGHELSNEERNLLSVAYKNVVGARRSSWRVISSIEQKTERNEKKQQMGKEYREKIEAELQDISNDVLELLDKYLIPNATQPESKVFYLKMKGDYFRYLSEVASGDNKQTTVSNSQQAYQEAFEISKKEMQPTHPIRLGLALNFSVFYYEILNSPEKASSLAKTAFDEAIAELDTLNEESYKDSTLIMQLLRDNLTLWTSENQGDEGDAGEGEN

For five molecules, binding results are on record in paper PMC8508763.

The target of experiment [1] is T1, Trx1-His (human) (UniProt P10599).
T1 sequence: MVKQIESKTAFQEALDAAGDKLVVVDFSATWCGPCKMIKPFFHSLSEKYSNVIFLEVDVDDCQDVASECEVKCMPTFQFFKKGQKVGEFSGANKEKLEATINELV
Put plainly: pull-down; competition: purified Trx1-His (5 μg) and lysate overexpressing HA-14-3-3β (5 μg) with 0, 1, 2 or 5 μg GST-SELENOW(U13C) for 2 h; glutathione or Ni-NTA beads 1 h; non-reducing SDS-PAGE, immunoblot anti-HA; only the target purified.

Experiment [2] has as its target T1, Trx1-His (human). In words: pull-down; purified Trx1-His incubated with lysate of HEK293 cells overexpressing HA-14-3-3β for 1 h, Ni-NTA beads 1 h, immunoblot anti-HA / anti-His; only the target purified. On the technique in general: Immunoblotting shows a protein as a band on a membrane.
Experiment [3] deals with HA-14-3-3β(C96, 191S) (human) (UniProt P31946). In words: co-IP; HEK293 cells transfected with HA-14-3-3β (WT or Cys mutants); extracts immunoprecipitated with anti-HA, immunoblotted with anti-Trx1; with or without H2O2 (200 μM, 30 min).
For experiment [4], the target named is HA-14-3-3β(C191S) (human) (UniProt P31946). The experiment is described as above.
Experiment [5] deals with HA-14-3-3β (human) (UniProt P31946). The experiment is described as above.
Experiment [6] addresses GST-14-3-3β (human) (UniProt P31946). In words: pull-down; purified Trx1-His (WT, C32S or C35S) incubated with purified GST-14-3-3β, glutathione beads 1 h, immunoblot anti-His / anti-GST; 20 mM HEPES pH 7.5, 1 mM EDTA, 4 °C; both purified.

Take HA-14-3-3β (from UniProt P31946 1-246): the binding entry in experiment [1] and in experiment [2] was “binds” throughout.

B1: Thioredoxin 1 (endogenous) (protein, UniProt P10599 1-105)
chain: MVKQIESKTAFQEALDAAGDKLVVVDFSATWCGPCKMIKPFFHSLSEKYSNVIFLEVDVDDCQDVASECEVKCMPTFQFFKKGQKVGEFSGANKEKLEATINELV
On to B1, for which the binding result is “no binding” in experiment [3], “no binding” in experiment [4] and “binds” in experiment [5].

B2: Trx1(C32S)-His (protein, UniProt P10599 1-105)
chain: MVKQIESKTAFQEALDAAGDKLVVVDFSATWSGPCKMIKPFFHSLSEKYSNVIFLEVDVDDCQDVASECEVKCMPTFQFFKKGQKVGEFSGANKEKLEATINELV
On to B2, for which, in experiment [6], the binding result is on record as “no binding”.

B3: Trx1(C35S)-His (protein, UniProt P10599 1-105)
chain: MVKQIESKTAFQEALDAAGDKLVVVDFSATWCGPSKMIKPFFHSLSEKYSNVIFLEVDVDDCQDVASECEVKCMPTFQFFKKGQKVGEFSGANKEKLEATINELV
Consider B3, for which the binding result in experiment [6] is “binds”.

B4: Trx1-His (protein, UniProt P10599 1-105)
chain: MVKQIESKTAFQEALDAAGDKLVVVDFSATWCGPCKMIKPFFHSLSEKYSNVIFLEVDVDDCQDVASECEVKCMPTFQFFKKGQKVGEFSGANKEKLEATINELV
Regarding B4, the binding result in experiment [6] is “binds”.
